Test results: the supplement of paper PMC4604168 (melanoma cell lines)
The list shows a part of the results. Repeats are few or missing, and single values can be far off.

Key:
Test in all cases: cell count relative to DMSO control; melanoma cells; higher = more viable cells
Conditions in all cases: library dose: standard library concentration; 72 h
G361 = tested on: G361
IPC-298 = tested on: IPC-298
IST-MEL1 = tested on: IST-MEL1
LB2518-MEL = tested on: LB2518-MEL
LOXIMVI = tested on: LOXIMVI
MEL-HO = tested on: MEL-HO
MZ2-MEL = tested on: MZ2-MEL
MeWo = tested on: MeWo
RPMI7951 = tested on: RPMI7951
RVH-421 = tested on: RVH-421
SkMel28 = tested on: SkMel28
SkMel2 = tested on: SkMel2
SkMel30 = tested on: SkMel30
SkMel5 = tested on: SkMel5
UACC257 = tested on: UACC257
UACC62 = tested on: UACC62
WM115 = tested on: WM115
WM1716 = tested on: WM1716
WM3526 = tested on: WM3526
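Note: cells treated in 1,536-well plates, then fixed and DAPI-stained, with nuclei counted from automated high-throughput microscope images.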

Row | Compound | cell count (G361) | cell count (IPC-298) | cell count (IST-MEL1) | cell count (LB2518-MEL) | cell count (LOXIMVI) | cell count (MEL-HO) | cell count (MZ2-MEL) | cell count (MeWo) | cell count (RPMI7951) | cell count (RVH-421) | cell count (SkMel28) | cell count (SkMel2) | cell count (SkMel30) | cell count (SkMel5) | cell count (UACC257) | cell count (UACC62) | cell count (WM115) | cell count (WM1716) | cell count (WM3526)
1 | Nc1nc(F)nc2c1ncn2[C@@H]1O[C@H](CO)[C@@H](O)[C@@H]1O [fludarabine] + Cc1cc(SCc2sc(-c3ccc(C(F)(F)F)c(F)c3)nc2C)ccc1OCC(=O)O [GW0742] (first compound 1 µM, partner dose 10 µM) | 79% | 76.9% | 56.5% | 86.2% | 115% | 72.6% | 102% | 76.7% | 72.7% | 88.5% | 5.6% | 2.07% | 22.7% | 26% | 28.1% | 83.9% | 104% | 84.9% | 25.1%
2 | O=c1[nH]nc(Sc2ncc([N+](=O)[O-])s2)n1-c1ccc2c(c1)OCCO2 + Cc1cc(SCc2sc(-c3ccc(C(F)(F)F)c(F)c3)nc2C)ccc1OCC(=O)O [GW0742] (first compound 1 µM, partner dose 10 µM) | 110% | 133% | 121% | 123% | 107% | 115% | 139% | 103% | 132% | 149% | 103% | 117% | 116% | 128% | 103% | 104% | 79.9% | 132% | 130%
3 | C[C@@H](Oc1cc(-c2cnn(C3CCNCC3)c2)cnc1N)c1c(Cl)ccc(F)c1Cl [Crizotinib] + Cc1cc(SCc2sc(-c3ccc(C(F)(F)F)c(F)c3)nc2C)ccc1OCC(=O)O [GW0742] (first compound 1 µM, partner dose 10 µM) | 92.5% | 90.8% | 88.3% | 76.8% | 86.7% | 91.1% | 92.5% | 81.6% | 73.3% | 82% | 44.9% | 81.5% | 76.2% | 69.1% | 89.1% | 67.7% | 75.4% | 80% | 68.4%
4 | CN(c1ncccc1CNc1nc(Nc2ccc3c(c2)CC(=O)N3)ncc1C(F)(F)F)S(C)(=O)=O + O=C(Oc1ccc([N+](=O)[O-])cc1)N1CCC(C(O)(c2ccc3c(c2)OCO3)c2ccc3c(c2)OCO3)CC1 [JZL184] (first compound 0.4 µM, partner dose 5 µM) | 102% | 102% | 97.8% | 94% | 241% | 114% | 117% | 112% | 70.6% | 83.1% | 86.8% | 94.3% | 96.5% | 74.5% | 73.3% | 55.3% | 88.1% | 77.5% | 95.5%
5 | CCCCCCCCc1ccc(CCC(N)(CO)CO)cc1 [fingolimod] + O=C(Oc1ccc([N+](=O)[O-])cc1)N1CCC(C(O)(c2ccc3c(c2)OCO3)c2ccc3c(c2)OCO3)CC1 [JZL184] (first compound 10 µM, partner dose 5 µM) | 0.4% | 76.3% | 9.57% | 0.425% | 14% | 7.01% | 81.2% | 5.68% | 2.66% | 7.2% | 0.432% | 1% | 6.24% | 25.9% | 59% | 7.59% | 9.45% | 7.04% | 21.7%
6 | O=C(O)[C@@H]1[O][Sb](=[O])([O][Sb]2(=[O])[O][C@H]([C@H](O)CO)[C@H](O)[C@H](C(=O)O)[O]2)[O][C@H]([C@H](O)CO)[C@@H]1O (stereo partly specified) [stibogluconate] + O=C(Oc1ccc([N+](=O)[O-])cc1)N1CCC(C(O)(c2ccc3c(c2)OCO3)c2ccc3c(c2)OCO3)CC1 [JZL184] (first compound 10 µM, partner dose 5 µM) | 104% | 88.1% | 109% | 123% | 194% | 87.2% | 105% | 102% | 124% | 144% | 102% | 108% | 110% | 118% | 113% | 82.2% | 143% | 92.6% | 81.3%
7 | CC(=O)c1c(C)c2cnc(Nc3ccc(N4CCNCC4)cn3)nc2n(C2CCCC2)c1=O [palbociclib] + Cc1cc(SCc2sc(-c3ccc(C(F)(F)F)c(F)c3)nc2C)ccc1OCC(=O)O [GW0742] (first compound 0.2 µM, partner dose 10 µM) | 68% | 84% | 71.9% | 65.5% | 92% | 81.2% | 83.6% | 55.1% | 56.4% | 79% | 44.4% | 62.5% | 76.4% | 65.9% | 83.6% | 84.9% | 51.8% | 43.7% | 49.6%
8 | Cc1cn(-c2cc(NC(=O)c3ccc(C)c(Nc4nccc(-c5cccnc5)n4)c3)cc(C(F)(F)F)c2)cn1 [nilotinib] + O=C(Oc1ccc([N+](=O)[O-])cc1)N1CCC(C(O)(c2ccc3c(c2)OCO3)c2ccc3c(c2)OCO3)CC1 [JZL184] (first compound 1 µM, partner dose 5 µM) | 81.9% | 85.4% | 95.3% | 107% | 96.5% | 88.6% | 82.3% | 73.7% | 99.5% | 90.7% | 94.9% | 92.2% | 86.8% | 64.1% | 103% | 77.4% | 101% | 88.9% | 71.6%
9 | O=C(Nc1cc(C(F)(F)F)cc(C(F)(F)F)c1)c1cc(Cl)ccc1O + C/C(O)=C(\C#N)C(=O)Nc1cc(Br)ccc1Br [LFM-A13] (first compound 0.08 µM, partner dose 10 µM) | 97.3% | 105% | 84.6% | 112% | 93.6% | 88.1% | 100% | 69.6% | 68% | 78.1% | 103% | 89.5% | 102% | 82.6% | 85.6% | 110% | 92% | 96.1% | 99.7%
